Results: PubChem BioAssay (NCATS)
“And” between values parts separate entries of the source, which are not always exact repeats. Identical values can stand only once. The shares of active, inactive and inconclusive entries below differ from those in the screen. Potencies beside an inconclusive call are fits to weak or partial responses and may not hold up. The source made the active and inactive calls. The call rests on the fitted dose curve; in most records, active means well fitted curve in the direction sought with a large enough effect; inconclusive means small, poorly fitted or top-dose-only effect, or another doubt; inactive means no such curve, though single readings can be large; an effect the other way counts as inactive or inconclusive. *1 amine or outer side, *2 acyl side, *3 side chain or, on linkers, in order; H or OH if unused. Where a SMILES comes first, the peptide text is derived from it. Bridges are numbered along the chain shown (N, C = ends). Roman numbers before positions name the chains, in order. [ ]: non-standard residue; d: D form. Actinocin(9to1) = Cc1c2oc3c(C)ccc(C(=O)[*:1])c3nc-2c(C(=O)[*:2])c(N)c1=O; NMeV = CN[C@H](C(=O)O)C(C)C; Sar = CNCC(=O)O

What was measured:
[1] = qHTS of pediatric cancer cell lines to identify multiple opportunities for drug repurposing: Primary screen for SJ-GBM2 cells (AID 1347091)
Summary of the method: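 Viability measured as metabolically active cells via CellTiter-Glo luminescence following 48 hours of compound exposure, 11-point dilutions in confirmatory testing. 500-1,000 cells/well plated 5 hours before dosing; controls were DMSO and 2.3 µM bortezomib.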

[2] = qHTS of pediatric cancer cell lines to identify multiple opportunities for drug repurposing: Primary screen for BT-37 cells (AID 1347094)
Summary of the method: (§1)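 Viability was measured as metabolically active cells after 48 hours of treatment, read by CellTiter-Glo luminescence. Compounds were tested at multiple final concentrations, giving concentration-response curves.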

[3] = qHTS of pediatric cancer cell lines to identify multiple opportunities for drug repurposing: Primary screen for NB-EBc1 cells (AID 1347095)
Summary of the method: as §1

[4] = qHTS of pediatric cancer cell lines to identify multiple opportunities for drug repurposing: Primary screen for U-2 OS cells (AID 1347096); further: nearly all actives have a fitted effect of over 50% in size
Summary of the method: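 Viability after 48 h compound treatment at 37C, 500-1,000 cells/well, read as ATP luminescence with CellTiter-Glo. Primary screens used 11-point (MIPE, 0.78 nM-46 µM) or 8-point (NPC, 0.59 nM-46 µM) final concentrations; follow-up screens used 11-point dilutions.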

[5] = qHTS of pediatric cancer cell lines to identify multiple opportunities for drug repurposing: Primary screen for SK-N-MC cells (AID 1347093); details: SK-N-MC viability, CellTiter-Glo luminescence, 48 h; activity change, negative = cytotoxic: at 46 µM (top of the series)
Summary of the method: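 Metabolically active cells were quantified by ATP-dependent luminescence (CellTiter-Glo, 15 min at room temperature) following 48 h treatment. Cells had been plated at 500-1,000 per well and settled for 5 h beforehand.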

[6] = qHTS of pediatric cancer cell lines to identify multiple opportunities for drug repurposing: Primary screen for A673 cells (AID 1347092); details: A673 Ewing sarcoma viability, CellTiter-Glo ATP luminescence, 48 h; activity change, negative = cytotoxic: at 46 µM (top of the series); further: nearly all actives have a fitted effect of over 45% in size
Summary of the method: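 A673 cells (500-1,000 cells/well) were treated 48 hours at 37 degrees C with compounds at 11-point (0.78 nM to 46 µM) or 8-point (0.59 nM to 46 µM) dilutions. Viability read by CellTiter-Glo luminescence; concentration-response curves fitted.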
Potency means the concentration at half of the fitted maximal effect; tags describe the fitted curve by direction and shape.

CCN(CC)CCCCNc1ncc2cc(-c3cc(OC)cc(OC)c3)c(NC(=O)NC(C)(C)C)nc2n1
Potency [1]: active: 14.8 µM | Potency [2]: active: 19.3 µM | Potency [3]: inconclusive: 16.6 µM [cytotoxic, partial curve] | Potency [4]: inconclusive: 18.7 µM [cytotoxic, partial curve]

CC12CC3CC(C)(C1)CC(N)(C3)C2
Potency [1]: inconclusive: 2.64 µM [cytotoxic, full curve] | Potency [3]: inconclusive: 1.87 µM [cytotoxic, full curve, poor fit]

CC(C)(O)Cn1c(NC(=O)c2ccc(-c3cn[nH]c3)s2)nc2cc(CN3CCOCC3)ccc21
Potency [1]: active: 0.743 µM | Potency [2]: active: 1.09 µM | Potency [4]: active: 1.87 µM

COc1cc(C(=O)OCCCN2CCCN(CCCOC(=O)c3cc(OC)c(OC)c(OC)c3)CC2)cc(OC)c1OC
Potency [1]: inconclusive: 10.6 µM [cytotoxic, partial curve, poor fit] | Potency [2]: inconclusive: 27.6 µM [cytotoxic, partial curve, poor fit]

C#C[C@]1(O)CC[C@H]2[C@@H]3[C@H](C)CC4=C(CCC(=O)C4)[C@H]3CC[C@@]21C
Potency [1]: inactive | Potency [5]: inconclusive: 33.5 µM [cytotoxic, single point] | Potency [3]: inactive

CC(C)CN(C[C@@H](O)[C@H](Cc1ccccc1)NC(=O)O[C@H]1CO[C@H]2OCC[C@H]21)S(=O)(=O)c1ccc(N)cc1
Potency [1]: inactive | Potency [3]: inconclusive: 20.9 µM [cytotoxic, partial curve] | Potency [4]: inconclusive: 18.7 µM [cytotoxic, partial curve, poor fit]

CCN(CC)CCCC(C)Nc1ccnc2cc(Cl)ccc12 (configuration not stated)
Potency [6]: inconclusive: 7.31 µM [cytotoxic, partial curve] | Potency [5]: inconclusive: 5.17 µM [cytotoxic, partial curve, poor fit] and active: 37.2 nM

Cc1c(-c2cccc3c(CCCOc4cccc5ccccc45)c(C(=O)O)n(Cc4cccnc4)c23)c(COc2ccc(N3CCN([S+](=O)([O-])N(C)C)CC3)cc2)nn1C
Potency [1]: inconclusive: 26.4 µM [cytotoxic, single point] | Potency [2]: inconclusive: 34.3 µM [cytotoxic, single point] | Potency [3]: inconclusive: 33.2 µM [cytotoxic, single point]

CC(C=CC=C(C)C=CC1=C(C)CCCC1(C)C)=CC=CC=C(C)C=CC=C(C)C=CC1=C(C)CCCC1(C)C
Potency [1]: inconclusive: 13.2 µM [cytotoxic, partial curve, poor fit] | Potency [3]: inconclusive: 16.6 µM [cytotoxic, partial curve] | Potency [4]: inactive

NS(=O)(=O)OC[C@@H]1C[C@@H](n2ccc3c(N[C@H]4CCc5ccccc54)ncnc32)C[C@H]1O
Potency [1]: active: 0.296 µM | Potency [2]: inconclusive: 0.863 µM [cytotoxic, full curve] | Potency [4]: inconclusive: 1.18 µM [cytotoxic, full curve]

Cc1c2oc3c(C)ccc(C(=O)N[C@@H]4C(=O)N[C@H](C(C)C)C(=O)N5CCC[C@H]5C(=O)N(C)CC(=O)N(C)[C@@H](C(C)C)C(=O)O[C@@H]4C)c3nc-2c(C(=O)N[C@@H]2C(=O)N[C@H](C(C)C)C(=O)N3CCC[C@H]3C(=O)N(C)CC(=O)N(C)[C@@H](C(C)C)C(=O)O[C@@H]2C)c(N)c1=O (I: T[dV]P[Sar][NMeV] / II: T[dV]P[Sar][NMeV]; ester I:1-I:C, II:1-II:C; linker I:N-II:N via Actinocin(9to1))
Potency [1]: inconclusive: 0.015 µM [cytotoxic, full curve] | Potency [2]: active: 0.0028 µM | Potency [4]: active: 0.0422 µM

CNNCc1ccc(C(=O)NC(C)C)cc1
Potency [1]: inactive | Potency [3]: inactive

CCN(CCCCOC(=O)c1ccc(OC)c(OC)c1)C(C)Cc1ccc(OC)cc1 (configuration not stated)
Potency [1]: inconclusive: 16.8 µM [cytotoxic, single point] | Potency [2]: inconclusive: 12.3 µM [cytotoxic, partial curve, poor fit]

CC(=O)OC[C@@H]1O[C@@H](n2ccc(=O)[nH]c2=O)[C@H](OC(C)=O)[C@H]1OC(C)=O
Potency [6]: inconclusive: 29.6 µM [cytotoxic, partial curve, poor fit]

CN(C(=O)CCCOc1ccc2[nH]c(=O)ccc2c1)C1CCCCC1
Potency [6]: inactive
